In PubChem BioAssay AID624418 (National Center for Advancing Translational Sciences (NCATS), 2012):
The whole screen tested about 410,000 compounds, of which about 530 (0.13%) were called active. Inconclusive means that the source gave no clear call. Such entries were picked first, then a sample of the others. Calls follow the shape of the dose curve; as a rule, active = well fitted inhibition curve with a large enough effect; inconclusive = small, poorly fitted or top-dose-only effect, or another doubt; inactive = no such curve, though single readings can be large or run the other way. Potencies beside an inconclusive call are fits to weak or partial responses and may not hold up.

experiment: qHTS of GLP-1 Receptor Inverse Agonists: Cytotox Screen; conditions: HEK293 cAMP-luciferase reporter cells, luminescence, 24 h; series mostly up to 38.3 µM
Outline: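 Seeding density was 200 cells/uL; after overnight-length (12 h) culture, 23 nL compounds went on for 24 h at 37 °C. Readout used a luciferase detection reagent, luminescence taken after 12 min at room temperature.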
Potency is read from the fitted curve at half-maximal effect.

Row | SMILES | Potency
1 | COc1ccccc1CC(=O)Nc1ccc(-c2nnc(-c3ccco3)o2)cc1 | inconclusive: 28.2 µM [inhibitor, single point]
2 | Oc1ccccc1Nc1ncnc2c1oc1ccccc12 | inconclusive: 20 µM [inhibitor, single point]
3 | CCc1ccc(NC(=S)N(Cc2ccccc2)Cc2ccccn2)cc1 | inconclusive: 11.2 µM [inhibitor, partial curve, poor fit]
4 | S=C(NCCC1=CCCCC1)NCc1ccco1 | inconclusive: 28.2 µM [inhibitor, single point]
5 | CCOC(=O)C1=C(C)NC(=O)NC1c1ccc(OC(C)C(=O)O)c(OC)c1 (configuration not stated) | inconclusive: 28.2 µM [inhibitor, single point]
6 | COc1ccc(OC)c(NS(=O)(=O)c2ccc(N3CCCC3=O)cc2)c1 | inactive
7 | CCOc1ccc(Oc2ccc(C(F)(F)F)cc2N)cc1 | inconclusive: 28.2 µM [inhibitor, single point]
8 | O=S(=O)(c1ccccc1)C1(C2CC(c3ccccc3)=NO2)CC(O)C1 (configuration not stated) | inconclusive: 22.4 µM [inhibitor, single point]
9 | Cc1cc(C[n+]2cc(Br)ccc2N)c2ncccc2c1 | inconclusive: 7.94 µM [inhibitor, partial curve, poor fit]
10 | Cc1nnc(SCc2nnc(-c3ccccc3Br)o2)n1-c1ccccc1 | inconclusive: 22.4 µM [inhibitor, single point]
11 | O=C(NCc1cn2ccsc2n1)c1cccs1 | inconclusive: 5.01 µM [inhibitor, full curve, poor fit]
12 | COc1ccc(CCNCC(=O)Nc2ccc(C)c(S(=O)(=O)N(C)C)c2)cc1OC | inactive
13 | CN1C=CC(=C[N+](=O)[O-])N(C)C1=O | inconclusive: 11.2 µM [inhibitor, single point]
14 | Cc1cccc(-n2c(O)c(C=Nc3ccc(O)cc3)c3ccccc3c2=O)n1 | inactive
15 | CCOC(=O)c1c(NC(=O)CCS(=O)(=O)c2ccccc2)sc2c1CCN(C(C)C)C2 | inconclusive: 14.1 µM [inhibitor, single point]
16 | CN1CCC(N(C)C(=S)NC(=O)c2cc(-c3cccc(Br)c3)nc3ccccc23)CC1 | inconclusive: 12.6 µM [inhibitor, single point]
17 | Cc1ccccc1OCC(=O)N1N=C(C(F)(F)F)CC1(O)C(C)(C)C (configuration not stated) | inconclusive: 28.2 µM [inhibitor, single point]
18 | COc1cc(OC)cc(C(=O)Nc2cccc3nc(C)ccc23)c1 | inconclusive: 28.2 µM [inhibitor, single point]
19 | O=[N+]([O-])c1ccc(Sc2nnnn2-c2ccccc2)nc1 | inconclusive: 8.91 µM [inhibitor, partial curve]
20 | Cc1sc2ncnc(N3CCC(C(=O)N(C)CC(=O)Nc4ccc(Cl)c(C(F)(F)F)c4)CC3)c2c1C | inconclusive: 11.2 µM [inhibitor, single point]
21 | CCN(C(=S)NC(=O)c1ccco1)c1cccc2ccccc12 | inconclusive: 11.2 µM [inhibitor, partial curve, poor fit]

Row | SMILES | Potency
22 | S=C(NCc1cccs1)Nc1cc(Cl)cc(Cl)c1 | inconclusive: 28.2 µM [inhibitor, single point]
23 | COc1ccccc1CC(=O)N1CCN(c2cccc(C(F)(F)F)c2)CC1 | inconclusive: 28.2 µM [inhibitor, single point]
24 | CC(=O)N/N=C/c1ccccc1OCCOc1cccc(C)c1 | inactive
25 | COc1ccc(CNC(=O)C(C)OC(=O)c2cccc(N(C)C)c2)cc1 (configuration not stated) | inconclusive: 2 µM [inhibitor, partial curve, poor fit]
26 | CC[C@]12C(=O)N(C)C[C@H]([C@@H]3C(=O)N(Cc4ccccc4)C(=O)[C@@H]31)N2C(=O)c1ccccc1 | inconclusive: 28.2 µM [inhibitor, single point]
27 | N#C/C(=C(/O)COC(=O)CCC1CCCCC1)c1nc2ccccc2[nH]1 | inconclusive: 5.62 µM [inhibitor, full curve]
28 | Cc1ccc(NC(=O)[C@H](Cc2c[nH]c3ccccc23)NC(=O)[C@@H]2Cc3ccccc3CN2)c(C)c1 | inconclusive: 22.4 µM [inhibitor, partial curve, poor fit]
29 | CCOc1ccc(NC(=S)Nc2ccccc2C2CC2)cc1 | inconclusive: 28.2 µM [inhibitor, single point]
30 | COc1cccc(OCC(=O)N(Cc2nc(-c3ccc(Cl)cc3)no2)C(C)C)c1 | inactive
31 | O=C(Cc1ccccc1)Nc1c(C(=O)Nc2ccccc2F)oc2ccccc12 | inactive
32 | ClC(Cl)(c1nnnn1-c1ccccc1)c1nnnn1-c1ccccc1 | inconclusive: 28.2 µM [inhibitor, single point]
33 | Cc1cccc(-n2nnnc2S(C)(=O)=O)c1 | inconclusive: 11.2 µM [inhibitor, partial curve, poor fit]
34 | C(=N\Nc1nc2ccccc2[nH]1)/c1ccccc1 | inconclusive: 28.2 µM [inhibitor, single point]
35 | Cc1cc(=O)oc2cc(NC(=O)C(C)Oc3cccc(Cl)c3)ccc12 (configuration not stated) | inconclusive: 12.6 µM [inhibitor, single point]
36 | O=C(NCCCn1ccnc1)c1cc(-c2cccs2)on1 | inactive
37 | COc1ccc(OC)c(-c2csc(NC(=O)Cc3ccc(F)cc3)n2)c1 | inactive
38 | Cc1nc(-c2coc3cc(O)c(C)cc3c2=O)cs1 | inactive
39 | CCOc1ccc(-c2cc(C(=O)Nc3ccc(C)c(NS(C)(=O)=O)c3)[nH]n2)c(C)c1 | inconclusive: 28.2 µM [inhibitor, single point]
40 | CNC(=S)N(CCc1cccc(C)c1)Cc1cc2cc(OC)c(OC)cc2[nH]c1=O | inconclusive: 22.4 µM [inhibitor, single point]
41 | CCOc1cccc2sc(NC(=O)CCS(=O)(=O)c3ccccc3)nc12 | inconclusive: 12.6 µM [inhibitor, single point]
42 | Cc1nc2ccc(NC(=O)c3ccc(S(=O)(=O)N(C)c4ccccc4)cc3)cc2s1 | inconclusive: 12.6 µM [inhibitor, single point]
